According to article PMC11006888:
Where two headings read alike, the source gives them in different places. Results are given in words; binding and its absence hold for the method and conditions named. In cells and extracts the contact can be indirect. Some entries that bind do so weakly or less than the wild type. Sequences can lack the tags named with a protein.

Sequences of proteins named here, by UniProt entry; tags and fusion partners are left off. Residues count along the entry.
UniProt Q9SYI0, residues 73-1022: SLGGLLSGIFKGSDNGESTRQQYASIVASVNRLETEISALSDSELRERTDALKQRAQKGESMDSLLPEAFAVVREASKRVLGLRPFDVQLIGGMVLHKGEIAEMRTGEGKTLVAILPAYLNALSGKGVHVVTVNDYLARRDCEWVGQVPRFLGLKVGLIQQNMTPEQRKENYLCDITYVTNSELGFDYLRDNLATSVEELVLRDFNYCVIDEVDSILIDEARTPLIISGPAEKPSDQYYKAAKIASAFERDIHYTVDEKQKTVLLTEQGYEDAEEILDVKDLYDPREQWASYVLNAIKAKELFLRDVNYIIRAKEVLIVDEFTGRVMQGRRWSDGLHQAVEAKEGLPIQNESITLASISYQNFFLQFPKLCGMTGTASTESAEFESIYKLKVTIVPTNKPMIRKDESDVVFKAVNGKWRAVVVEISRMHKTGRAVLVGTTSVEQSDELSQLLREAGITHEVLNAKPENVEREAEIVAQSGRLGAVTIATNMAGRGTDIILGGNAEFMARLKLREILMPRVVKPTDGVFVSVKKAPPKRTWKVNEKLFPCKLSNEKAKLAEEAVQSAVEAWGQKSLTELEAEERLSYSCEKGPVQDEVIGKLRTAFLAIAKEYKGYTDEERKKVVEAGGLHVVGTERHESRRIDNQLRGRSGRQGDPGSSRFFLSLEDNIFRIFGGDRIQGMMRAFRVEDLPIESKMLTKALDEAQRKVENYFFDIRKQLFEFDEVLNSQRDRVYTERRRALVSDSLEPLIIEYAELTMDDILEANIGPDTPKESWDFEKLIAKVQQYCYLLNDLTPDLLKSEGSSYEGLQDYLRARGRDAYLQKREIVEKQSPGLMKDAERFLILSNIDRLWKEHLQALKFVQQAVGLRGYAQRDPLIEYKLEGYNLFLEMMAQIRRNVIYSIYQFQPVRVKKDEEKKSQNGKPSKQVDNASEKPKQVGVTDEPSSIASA

T1: PAM68-YFP^N (Arabidopsis thaliana) (UniProt O49668)
T1 sequence: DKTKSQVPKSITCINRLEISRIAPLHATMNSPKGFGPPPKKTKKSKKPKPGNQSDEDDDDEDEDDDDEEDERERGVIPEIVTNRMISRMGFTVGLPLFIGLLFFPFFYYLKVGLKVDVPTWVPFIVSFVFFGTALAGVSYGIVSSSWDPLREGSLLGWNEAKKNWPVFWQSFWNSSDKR

T2: YCF4-YFP^N (UniProt P56788)
T2 sequence: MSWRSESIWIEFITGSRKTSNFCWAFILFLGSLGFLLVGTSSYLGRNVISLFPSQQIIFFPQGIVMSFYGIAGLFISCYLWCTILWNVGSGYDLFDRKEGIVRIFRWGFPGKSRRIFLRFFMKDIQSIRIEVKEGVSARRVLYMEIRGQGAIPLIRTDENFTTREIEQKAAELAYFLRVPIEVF

B1: LPA1-YFP^C (protein, UniProt Q9SRY4 93-453)
chain: DALVQFETALSLAPNPIESQAAYYNKACCHAYRGEGKKAVDCLRIALRDYNLKFATILNDPDLASFRALPEFKELQEEARLGGEDIGDNFRRDLKLISEVRAPFRGVRKFFYFAFAAAAGISMFFTVPRLVQAIRGGDGAPNLLETTGNAAINIGGIVVMVSLFLWENKKEEEQMVQITRDETLSRLPLRLSTNRVVELVQLRDTVRPVILAGKKETVTLAMQKADRFRTELLRRGVLLVPVVWGERKTPEIEKKGFGASSKAATSLPSIGEDFDTRAQSVVAQSKLKGEIRFKAETVSPGEWERWIRDQQISEGVNPGDDVYIILRLDGRVRRSGRGMPDWAEISKELPPMDDVLSKLER
B2: LPA2-YFP^C (protein, UniProt F4KDA6 47-185)
chain: SKNSSSSGVGFGSPASSSSPAKKLSAATSGNKKGKGKREVNRRAPVEKPVFMSEEGAAKAEEQRQNENAFLLTWLGLGIVILIEGIILAASGFLPEELDKLFVKYVYPVFTPSVVLFVAGTTAYGVLKYIQNEKMKGQE
B3: FtsY-YFP^C (protein, UniProt O80842 41-366)
chain: CSAGPSGFFTRLGRLIKEKAKSDVEKVFSGFSKTRENLAVIDELLLFWNLAETDRVLDELEEALLVSDFGPKITVRIVERLREDIMSGKLKSGSEIKDALKESVLEMLAKKNSKTELQLGFRKPAVIMIVGVNGGGKTTSLGKLAHRLKNEGTKVLMAAGDTFRAAASDQLEIWAERTGCEIVVAEGDKAKAATVLSKAVKRGKEEGYDVVLCDTSGRLHTNYSLMEELIACKKAVGKIVSGAPNEILLVLDGNTGLNMLPQAREFNEVVGITGLILTKLDGSARGGCVVSVVEELGIPVKFIGVGEAVEDLQPFDPEAFVNAIFS
B4: cpSRP54-YFP^C (protein, UniProt P37107 76-564)
chain: EMFGQLTGGLEAAWSKLKGEEVLTKDNIAEPMRDIRRALLEADVSLPVVRRFVQSVSDQAVGMGVIRGVKPDQQLVKIVHDELVKLMGGEVSELQFAKSGPTVILLAGLQGVGKTTVCAKLACYLKKQGKSCMLIAGDVYRPAAIDQLVILGEQVGVPVYTAGTDVKPADIAKQGLKEAKKNNVDVVIMDTAGRLQIDKGMMDELKDVKKFLNPTEVLLVVDAMTGQEAAALVTTFNVEIGITGAILTKLDGDSRGGAALSVKEVSGKPIKLVGRGERMEDLEPFYPDRMAGRILGMGDVLSFVEKATEVMRQEDAEDLQKKIMSAKFDFNDFLKQTRAVAKMGSMTRVLGMIPGMGKVSPAQIREAEKNLLVMEAMIEVMTPEERERPELLAESPERRKRIAKDSGKTEQQVSALVAQIFQMRVKMKNLMGVMEGGSIPALSGLEDALKAEQKAPPGTARRKRKADSRKKFVESASSKPGPRGFGSGN
B5: PAM68-YFP^C (protein, UniProt O49668 36-214)
chain: T1 sequence

Tests used:
Assay in all cases: split reporter; BiFC with YFP^N and YFP^C fusions cotransformed into Arabidopsis protoplasts; confocal microscopy
[1] = biological target: T1, PAM68-YFP^N (Arabidopsis thaliana)
[2] = biological target: T1, PAM68-YFP^N (Arabidopsis thaliana); remark: listed apart in the source
YCF4-YFP^N = biological target: T2, YCF4-YFP^N

Molecule	binding [2]	other results
SecA1-YFP^C (from UniProt Q9SYI0 73-1022)		binding [1]: binds
B1	binds	
B2	binds	
B3	binds	
B4	binds	
B5		binding (YCF4-YFP^N): no binding
